Assay results published in the supplement of paper PMC10322689.
Where a name gives a salt, the structure may show the parent alone. This is one part of the list. Many values rest on one well or one pass, so single values are uncertain.

test system: mouse mesenchymal chondrosarcoma cells (HEY1-NCOA2); experiment: XTT absorbance relative to DMSO control (cell viability) (fraction of DMSO control); higher = more viable cells / less growth inhibition

| SMILES | XTT absorbance |
| --- | --- |
| CC[C@H](C)C(=O)O[C@H]1C[C@@H](C)C=C2C=C[C@H](C)[C@H](CC[C@@H]3C[C@@H](O)CC(=O)O3)[C@H]21 [Lovastatin] | 0.826 |
| CNC(=N)NCCC[C@H](N)C(=O)O | 0.901 |
| COC(=O)C1=C(C)NC(C)=C(C(=O)OC)C1c1ccccc1[N+](=O)[O-] [Nifedipine] | 0.944 |
| CC[C@]1(O)C[C@@H]2CN(CCc3c([nH]c4ccccc34)[C@@](C(=O)OC)(c3cc4c(cc3OC)N(C)[C@H]3[C@@](O)(C(=O)OC)[C@H](OC(C)=O)[C@]5(CC)C=CCN6CC[C@]43[C@@H]65)C2)C1 [Vinblastine sulfate] | 0.426 |
| O=C(CCCCCN1C(=O)c2cccc3cccc(c23)C1=O)NO [Scriptaid] | 0.677 |
| CC1(C)CCC(C)(C)c2cc(NC(=O)c3ccc(C(=O)O)cc3)ccc21 [tamibarotene] | 1.09 |
| C[C@@H]1C[C@H]2[C@@H]3CCC4=CC(=O)C=C[C@]4(C)[C@@]3(F)[C@@H](O)C[C@]2(C)[C@@]1(O)C(=O)CO [Dexamethasone] | 0.84 |
| O=C(Nc1cccc(Nc2nccc(Nc3cccc(C(F)(F)F)c3)n2)c1)C1CC1 [Aurora kinase inhibitor III] | 0.986 |
| O=S(=O)(c1cccc2cnccc12)N1CCCNCC1 | 0.922 |
| COc1cc(O)c(CC=C(C)C)c(O)c1C(=O)/C=C/c1ccc(O)cc1 [Xanthohumol] | 0.907 |
| Cc1cn(-c2cc(NC(=O)c3ccc(C)c(Nc4nccc(-c5cccnc5)n4)c3)cc(C(F)(F)F)c2)cn1 [nilotinib] | 0.954 |
| CC(C)(C)NC(=O)[C@H]1CC[C@H]2[C@@H]3CC[C@H]4NC(=O)C=C[C@]4(C)[C@H]3CC[C@]12C [Finasteride] | 1 |
| CC#C[C@]1(O)CC[C@H]2[C@@H]3CCC4=CC(=O)CCC4=C3[C@@H](c3ccc(N(C)C)cc3)C[C@@]21C [Mifepristone] | 0.973 |
| CC[n+]1c(/C=C/N(C)c2ccccc2)n(-c2ccccc2)c2ccc(-c3nc4ccccc4s3)cc21 [Akt Inhibitor IV] | 1.05 |
| CC(=O)N[C@@H](CSC(=O)[C@]1([C@@H](O)C(C)C)NC(=O)[C@H](C)[C@@H]1O)C(=O)O [Lactacystin] | 0.923 |
| COc1ccc(COc2ccc(Cc3cnc(N)nc3N)cc2OC)cc1 [cFMS Receptor Tyrosine Kinase Inhibitor] | 0.952 |
| COc1ccc(C2=N[C@@H](c3ccc(Cl)cc3)[C@@H](c3ccc(Cl)cc3)N2C(=O)N2CCNC(=O)C2)c(OC(C)C)c1 [Nutlin-3] | 0.85 |
| Cc1ccc(NC(=O)c2ccc(CN3CCN(C)CC3)cc2)cc1Nc1nccc(-c2cccnc2)n1 [imatinib mesylate] | 0.894 |
| O=C(CCCCCCC(=O)Nc1ccccc1)NO [vorinostat] | 0.783 |
| NC(=O)c1ccc(I)c([N+](=O)[O-])c1 [BSI-201 (Iniparib)] | 0.989 |
| O=c1c(-c2ccc(O)cc2)coc2cc(O)cc(O)c12 [Genistein] | 0.885 |
| Ic1cccc(CSc2nnc(-c3ccncc3)o2)c1 [GSK-3 inhibitor II] | 0.86 |
